Assay results as given in article PMC4336329 (PLoS ONE, 2015).
The campaign covered roughly 310,000 compounds. About 2,200 (0.71%) showed an effect of 50% or more. Effects have a minus sign here. This is one part of the list.

Each molecule was assayed against human ether-à-go-go-related gene (hERG) potassium channel (human, UniProt Q12809) (assay: primary screen, population patch clamp on CHO cells stably expressing hERG).
human ether-à-go-go-related gene (hERG) potassium channel, sequence (Q12809 whole entry, looked up): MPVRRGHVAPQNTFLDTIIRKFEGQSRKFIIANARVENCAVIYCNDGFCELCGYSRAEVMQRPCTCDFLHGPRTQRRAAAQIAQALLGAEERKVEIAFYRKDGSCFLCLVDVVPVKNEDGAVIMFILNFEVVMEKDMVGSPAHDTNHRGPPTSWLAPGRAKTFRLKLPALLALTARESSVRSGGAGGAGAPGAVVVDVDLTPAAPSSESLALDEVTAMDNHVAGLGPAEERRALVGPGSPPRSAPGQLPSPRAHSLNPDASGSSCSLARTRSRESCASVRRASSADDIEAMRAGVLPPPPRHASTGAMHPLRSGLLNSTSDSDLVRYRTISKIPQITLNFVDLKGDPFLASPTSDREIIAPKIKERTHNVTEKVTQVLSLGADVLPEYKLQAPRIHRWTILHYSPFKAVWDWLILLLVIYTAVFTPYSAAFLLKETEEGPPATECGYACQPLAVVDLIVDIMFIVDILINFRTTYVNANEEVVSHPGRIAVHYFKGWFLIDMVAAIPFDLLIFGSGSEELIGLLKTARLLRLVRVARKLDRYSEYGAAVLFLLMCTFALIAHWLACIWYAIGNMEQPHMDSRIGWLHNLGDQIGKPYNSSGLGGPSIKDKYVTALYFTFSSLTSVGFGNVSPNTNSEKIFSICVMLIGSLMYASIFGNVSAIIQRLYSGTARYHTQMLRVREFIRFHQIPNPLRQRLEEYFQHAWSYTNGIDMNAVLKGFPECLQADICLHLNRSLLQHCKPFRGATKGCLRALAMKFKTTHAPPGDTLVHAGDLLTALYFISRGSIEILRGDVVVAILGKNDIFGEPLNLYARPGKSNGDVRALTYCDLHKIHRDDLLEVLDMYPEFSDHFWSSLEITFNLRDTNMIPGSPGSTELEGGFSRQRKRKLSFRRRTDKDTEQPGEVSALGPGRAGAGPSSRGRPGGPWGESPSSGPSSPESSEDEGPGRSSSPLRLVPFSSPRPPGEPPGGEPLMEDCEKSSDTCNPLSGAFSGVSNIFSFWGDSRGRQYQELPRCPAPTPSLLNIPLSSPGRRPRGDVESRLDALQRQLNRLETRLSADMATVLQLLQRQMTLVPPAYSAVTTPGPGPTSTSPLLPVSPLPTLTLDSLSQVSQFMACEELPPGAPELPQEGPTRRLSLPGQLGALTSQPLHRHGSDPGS

SMILES | hERG current change (%, negative = inhibition) at 1uM [%]
CCn1c(N)c(C(=O)Nc2ccccc2C(=O)OC)sc1=S | 13.6
COc1ccc(-c2nc(CS(=O)(=O)CC(=O)NCc3ccc4c(c3)OCO4)c(C)o2)cc1 | 11.6
O=c1c2ccccc2nnn1Cc1nnc(-c2ccccc2Br)o1 | -0.697
CCOC(=O)N1CCN(C(=O)Nc2ccccc2)CC1 | 6.12
Cc1nn(C)cc1/C=N/NC(=O)Cn1nccc1C | 3.69
N/C(=N\OC(=O)C1CCCCC1)c1ccc(Br)cc1 | -1.27
CCC(CO)Oc1cc(NC(=O)c2cccc(Cl)c2)c2ncn(C(C)C)c2c1 (centres unmarked) | 13.9
COC(=O)C1(C(=O)OC)NOC2C(=O)N(c3ccccc3)C(=O)C21 (centres unmarked) | 1.09
COc1ccc(/C=C/c2nc(-c3ccccc3O)n[nH]2)cc1OC | 14.9
CC(C)CC(=O)Nc1nnc(S(=O)(=O)N(C)c2ccc(Cl)cc2)s1 | 9.97
N/C(=N\OC(=O)c1cccc(F)c1)c1ccccn1 | 20.9
Cc1cccc(C)c1OCc1cc(C(=O)N2CCCCCCC2)no1 | 12.3
CN=c1scc(C)n1/N=C/c1ccc2c(c1)OCO2 | 13.8
C=CCNC(=O)c1onc(CSc2ccc(F)cc2)c1C(=O)NCC=C | 1.73
COc1ccc(NC(=O)C2CCCN(S(=O)(=O)c3cccc4cccnc34)C2)cc1OC (centres unmarked) | 4.52
Cc1cccc(C)c1OCc1n[nH]c(=S)o1 | 11.5
COc1cc(/C=C(/Sc2nnc(-c3ccc(F)cc3)o2)C(=O)O)ccc1OC(F)F | 14.2
Cc1ccc(Cc2cnc(N3C(=N)SC(c4ccccc4)C3=O)s2)cc1 (centres unmarked) | 8.23
COC(=O)Nc1ccc(S(=O)(=O)N2CCC(C(=O)N(C)C3CCCCC3)CC2)cc1 | 1.74
CSCCNC(=O)c1ccc(OC2CCN(S(=O)(=O)N(C)C)CC2)cc1 | 6.09
O=C(Cn1ncc(Cl)c(Cl)c1=O)NCC1CCCCC1 | -7.26
O=C(/C=C\c1ccco1)Nc1ccc(N2CCN(C(=O)c3ccccc3)CC2)cc1 | -24.3

SMILES | hERG current change (%, negative = inhibition) at 1uM [%]
COc1ccc(S(=O)(=O)N2CCOCC2)cc1NC(=O)CN(C)Cc1c(F)cccc1Cl | 0.297
O=C(NCCS(=O)(=O)N1CCN(Cc2ccccc2)CC1)c1ccc(F)cc1 | -10.9
Cc1cnc([N+](=O)[O-])n1CCOC(=O)NC(=O)c1ccccc1Cl | 8.43
O=C(COC(=O)c1ccccc1C(=O)c1ccccc1)NCCc1ccccc1 | 0.415
COc1ccc(C(=O)NC(=S)N(C)C2CCCCC2)cc1Br | 5.69
CCCCN(C)C(=O)c1ccc2c(c1)N(CC)C(=O)c1ccccc1S2(=O)=O | 4.4
CCCCCCn1c(O)c(C=NCCN2CCCCC2)c(=O)[nH]c1=O | -6.33
Cc1ccc(C2(C)NC(=O)N(CC(=O)Nc3ccc4c(c3)OCO4)C2=O)cc1 (centres unmarked) | 4.69
COc1ccc(S(=O)(=O)N2CCCCC2)cc1NC(=O)c1cccnc1SC | -0.883
COc1ccc(OC)c(-n2nnnc2SCC(=O)Nc2cc(C)ccc2OC)c1 | 2.8
O=C(O)COc1ccc(/C=N/NC(=O)c2cn(-c3ccccc3)nc2-c2ccccc2)cc1 | 1.75
CC(NS(=O)(=O)c1ccc(CCC(=O)N2CCN(C)CC2)cc1)c1ccccc1 (centres unmarked) | 12.3
CCOc1ccc(-c2n[nH]c(C(=O)NN)c2C)cc1 | -2.92
COc1ccc(-c2nn(-c3ccccc3)cc2C(=O)NC(=S)N2CCOCC2)cc1OC | 19
CC1=C(C(=O)OC2CCCCCCC2)C(c2cc3c(cc2Br)OCO3)CC(=O)N1 (centres unmarked) | 11.4
COc1cc(/C=N\NC(=O)CN2CCOCC2)ccc1OCC(=O)Nc1ccc(C)c(C)c1 | -6.87
NS(=O)(=O)c1ccc(CNC(=O)C2CCCCC2)cc1 | 7.53
NC(=O)C(c1ccc(Cl)cc1Cl)c1ncc(C(F)(F)F)cc1Cl (centres unmarked) | -14.4
CCN(C(=O)CSc1nc(C)nc2sc(C)c(C)c12)C1CCS(=O)(=O)C1 (centres unmarked) | 1.59
COc1ccc(-c2nc3c(c(SCC(=O)N4CCOCC4)n2)Cc2c(CO)cnc(C)c2O3)cc1 | 10.4
C=CCOc1cccc(/C=N/NC(=O)CC(=O)NC2CCCCC2)c1 | 15.4
COc1cccc(N(CC(=O)NC2CCCCC2)C(=O)CCCC(=O)Nc2ccccn2)c1 | 14
